The results in this text go back to US20160002343A1 (AbbVie / Abbott, published 2016).

In assay [1] the target is T1, mouse Transferrin Receptor overexpressed on Hek 293 cells (mouse, UniProt Q62351).
T1 construct: whole, on cells; also called mTfR; Hek293/mTfR
The experiment in a line: cell-based MSD-ECL binding, Hek293/mTfR cells. Here is the method:
(§1) Meso-scale Discovery (MSD) Electrochemiluminescence (ECL) assays to screen for antibodies or DVD-Ig proteins that bind a desired target antigen expressed on the cell surface were performed as follows: Hek 293 cells overexpressing mouse Transferrin Receptor were added onto MSD 96-well plates (MSD Cat# L11 XB-3, lot#2290-EA). The plates which were blocked using blocking buffer (30% FBS Serum (Hyclone) in PBS) at 37° C. for 1 hour. After incubating at room temperature (RT) for 30 minutes with mild agitation, plates were washed with DPBS 3 times and Abs/DVD-Ig proteins (10,000 ng/ml) were added. After incubating for 1 hour at RT, plates were washed 3 times with DPBS and 25 μl of Goat anti-human Sulfo TAG (MSD Cat# R32AC-, Lot# W001162) at 1 μg/ml was added. Following incubation at RT for 1 hour, plates were washed and MSD read buffer was added before reading on a MSD SECTOR Imager 6000. EC50 values were obtained using Xlfit4 software package.

Assay [2] has as its target T1, mouse Transferrin Receptor …. The experiment in a line: EC50 column of Table 13, taken as the cell-based mTfR binding assay. On the procedure:
as §1

T1 sequence (Q62351 whole entry): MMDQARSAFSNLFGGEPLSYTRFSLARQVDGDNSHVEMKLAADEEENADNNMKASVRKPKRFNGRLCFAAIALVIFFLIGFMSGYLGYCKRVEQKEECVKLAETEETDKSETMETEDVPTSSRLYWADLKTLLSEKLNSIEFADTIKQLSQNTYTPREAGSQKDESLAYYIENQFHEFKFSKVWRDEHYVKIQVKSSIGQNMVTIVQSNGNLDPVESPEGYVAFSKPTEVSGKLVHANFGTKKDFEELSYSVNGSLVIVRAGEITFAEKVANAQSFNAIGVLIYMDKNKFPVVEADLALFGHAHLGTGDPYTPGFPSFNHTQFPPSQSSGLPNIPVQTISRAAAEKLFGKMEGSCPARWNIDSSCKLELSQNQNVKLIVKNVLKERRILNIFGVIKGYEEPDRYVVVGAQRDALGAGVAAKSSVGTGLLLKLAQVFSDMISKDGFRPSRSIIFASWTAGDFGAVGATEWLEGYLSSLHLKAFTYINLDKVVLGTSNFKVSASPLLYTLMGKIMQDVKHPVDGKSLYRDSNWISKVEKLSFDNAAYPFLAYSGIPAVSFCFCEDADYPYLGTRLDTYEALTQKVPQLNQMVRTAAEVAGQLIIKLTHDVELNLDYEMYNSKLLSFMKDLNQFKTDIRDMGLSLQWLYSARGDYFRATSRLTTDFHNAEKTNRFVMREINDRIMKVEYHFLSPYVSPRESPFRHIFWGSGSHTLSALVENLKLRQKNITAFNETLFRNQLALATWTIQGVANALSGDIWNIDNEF

B1: DVD2576 (bispecific antibody)
VH-VH: [about 120 residues skipped]ASTKGPEVQLVESGGGLVQPGNSLTLSCVASGFTFSNYGMHWIRQAPKKGLEWIAMIYYDSSKMNYADTVKGRFTISRDNSKNTLYLEMNSLRSEDTAMYYCAVPTSHYVVDVWGQGVSVTVSS
VL-VL: [about 100 residues skipped]RTVAAPDIQMTQSPASLSASLEEIVTITCQASQDIGNWLAWYQQKPGKSPQLLIYGATSLADGVPSRFSGSRSGTQFSLKISRVQVEDIGIYYCLQAYNTPWTFGGGTKLELK
notes: DVD-Ig; also called Her2ssTfR
For the molecule B1, the EC50 in assay [1] and in assay [2] was 3.4 nM each time.

B2: DVD2575 (bispecific antibody)
VH-VH: EVQLVESGGGLVQPGNSLTLSCVASGFTFSNYGMHWIRQAPKKGLEWIAMIYYDSSKMNYADTVKGRFTISRDNSKNTLYLEMNSLRSEDTAMYYCAVPTSHYVVDVWGQGVSVTVSSASTKGP[about 120 residues skipped]
VL-VL: DIQMTQSPASLSASLEEIVTITCQASQDIGNWLAWYQQKPGKSPQLLIYGATSLADGVPSRFSGSRSGTQFSLKISRVQVEDIGIYYCLQAYNTPWTFGGGTKLELKRTVAAP[about 100 residues skipped]
notes: DVD-Ig; also called TfRSSHer2
For the molecule B2, the EC50 – broadly, the concentration that produces a half-maximal response – in assay [1] came out at 0.11 nM; in assay [2], 0.1 nM.
